Reference: patent publication US10287311B2, “Modified fluorinated nucleoside analogues” (priority 2003, dated 2019)

Legend:
GAPDH = assay: Cellular toxicity in other replicons, GAPDH; type: cell-based
[1] = Cellular toxicity in other replicons, MTT
MDCK cells = assay: Cytotoxicity (CPE, Neutral Red) in MDCK cells of the antiviral tests
[2] = HCV 1a (pp1aSI-7) replicon cells

C[C@@]1(F)[C@H](O)[C@@H](CO)O[C@H]1n1ccc(N)nc1=O
> 100 µM: IC90 (GAPDH; [2]) | IC90 (GAPDH; HCV 1b (Btat) replicon cells) | IC90 (GAPDH; HCV 1b (Ntat) replicon cells) | IC90 [1, 2] | IC90 ([1]; HCV 1b (Btat) replicon cells) | IC90 ([1]; HCV 1b (Ntat) replicon cells) | CC50 (MDCK cells; read-out: CC50, CPE, Influenza A (H3N2) test) | CC50 (MDCK cells; read-out: CC50, NR, Influenza A (H1N1) test, Neutral Red) | CC50 (MDCK cells; read-out: CC50, NR, Influenza A (H3N2) test, Neutral Red)

C[C@@]1(O)[C@H](O)[C@@H](CO)O[C@H]1n1ccc(N)nc1=O [2′-C-methylcytidine, reference compound]
> 100 µM: IC90 (GAPDH; [2]) | IC90 (GAPDH; HCV 1b (Btat) replicon cells) | IC90 (GAPDH; HCV 1b (Ntat) replicon cells) | IC90 [1, 2] | IC90 ([1]; HCV 1b (Btat) replicon cells) | IC90 ([1]; HCV 1b (Ntat) replicon cells)

Read-outs that look alike come from different tables or passages of the source.
